# Measurements taken from PubChem BioAssay AID1347417 (National Center for Advancing Translational Sciences (NCATS), 2020).
# The campaign covered roughly 120,000 compounds. About 5,300 (4.4%) were called active. Inconclusive results, whose numbers are uncertain, are shown with a selection of clear calls. The call rests on the fitted dose curve; in most records, active means well fitted inhibition curve with a large enough effect; inconclusive means small, poorly fitted or top-dose-only effect; inactive means no such curve, though single readings can be large or run the other way. Where the call is inconclusive, the potency comes from a doubtful curve fit.
# Test: qHTS Primary assay for Inhibitors of Plasmodium falciparum Dd2 growth in vitro; further: nearly all actives have a fitted effect of over 65% in size;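 on activity, negative = inhibition: plate controls were DMSO vehicle for no effect and reference drug for full effect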
# Details: P. falciparum Dd2 growth, SYBR Green, 72 h; activity, negative = inhibition: at 28.9 µM (top of the series) unless noted; series mostly up to 28.9 µM
# Procedure, shortened: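 Readout: SYBR Green fluorescence, 485 nm excitation, 535 nm emission, after ~16 h lysis at 37C. Before that, Dd2-infected red cells (2.5% hematocrit) grew 72 h with compound, 29 uM top final concentration.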
# Potency means the concentration at half of the fitted maximal effect; tags describe the fitted curve by direction and shape.
SMILES,Potency,"activity, negative = inhibition"
O=C(C[C@@H]1O[C@H](CNC(=O)Nc2cccc(F)c2)[C@@H](O)[C@H]1O)NCCN1CCOCC1,inactive,–
O=C1NCCCCCCN(Cc2ccncc2)[C@@H]2CN(Cc3ccncc3)CC[C@H]12,"inconclusive: 8.91 µM [inhibitor, partial curve, poor fit]",–
CCc1ccc(CNC(=O)c2ccc3c(c2)N(CC)C2CCCCN2C3=O)cc1 (stereo not given),"inconclusive: 12.6 µM [inhibitor, single point]",–
COc1cc(NC(=O)CC(c2cccs2)N2Cc3ccccc3C2=O)cc(OC)c1OC (stereo not given),"inconclusive: 10 µM [inhibitor, single point]",–
Cc1ccccc1NC(=O)N1C[C@@H](F)C[C@H]1C(=O)N1CCc2ccccc2C1,"inconclusive: 17.8 µM [inhibitor, single point]",–
CC(C)c1ccc(NC(=O)O[C@@H]2CO[C@H]3[C@@H]2OC[C@@H]3NC(=O)Nc2cccc(C#N)c2)cc1,"inconclusive: 8.91 µM [inhibitor, partial curve, poor fit]",–
CCc1ccccc1N1C(=O)N(CC(=O)c2ccc(OC)cc2)c2ccccc2S1(=O)=O,inactive,–
CC(C)Oc1ccc(C(=O)Nc2nonc2-c2ccc(OC(C)C)cc2)cc1,"inconclusive: 17.8 µM [inhibitor, single point]",–
Cc1cnc(C(=O)N2CCC(N3C(=O)C4(CCCC4)C3c3ccccc3)CC2)cn1 (stereo not given),"inconclusive: 10 µM [inhibitor, single point]",–
CO[C@@H]1CO[C@H]2[C@@H]1OC[C@@H]2n1nnnc1C(C)C,inactive,–
N#Cc1ccc(CN2CCC3(COc4ccccc4C(=O)N3)C2)cc1 (stereo not given),"inconclusive: 31.6 µM [inhibitor, single point]",–
COc1ccccc1Cn1cc(C(=O)c2ccc(C)cc2)c(=O)c2cc(F)cc(F)c21,–,inconclusive: -163% [inhibitor] [at 5.79 µM]
c1ccc(OCc2noc(CN3CCN(C(c4ccccc4)c4ccccc4)CC3)n2)cc1,"inconclusive: 10 µM [inhibitor, single point]",–
COc1cc2c(cc1OC)C(CNC(=O)C1CC1)N(C(=O)NC(C)C)CC2 (stereo not given),inactive,–
COc1ccc(-c2nc(SCC(=O)Nc3ccc4c(c3)OCCO4)c(-c3ccccc3)[nH]2)cc1,"inconclusive: 17.8 µM [inhibitor, single point]",–
CN1[C@@H](CCC(=O)NCc2cccs2)CNC(=O)[C@@H]2[C@H]1CCN2C1CCOCC1,inactive,–
O=C(c1ccccc1Cl)N1CCn2c(nn(-c3ccncc3)c2=O)C1,inactive,–
CC(=O)N1Cc2ccccc2NC(=O)C12CCNCC2,inactive,–
Cc1cc(N2CCN(C(=O)CCCS(N)(=O)=O)CC2)cc(C)n1,inactive,–
CCSc1nn(CC(=O)Nc2cccc(Cl)c2)c(N)c1S(=O)(=O)c1ccc(OC)cc1,"inconclusive: 14.1 µM [inhibitor, single point]",–
CCOCCCNC(=O)N1CCC2(CC1)CC(N1CCOCC1)CCO2 (stereo not given),inactive,–
O=C(Cc1cccs1)N1CC(c2noc(C3CCCN3CC3CC3)n2)C1 (stereo not given),"inconclusive: 1.41 µM [inhibitor, full curve, poor fit]",–

SMILES,Potency,"activity, negative = inhibition"
COc1ccc(OC)c(NC(=O)CCn2ccn3nc4c(c3c2=O)CCCC4)c1,inactive,–
CCn1nccc1C(=O)N1c2ccccc2CC1c1nnc(C2CCOCC2)o1 (stereo not given),"inconclusive: 10 µM [inhibitor, single point]",–
O=C(c1cscn1)N1CCC2(COc3ncccc3S(=O)(=O)N2)C1 (stereo not given),–,inconclusive: -66.1% [inhibitor]
Cc1ccc(CNC(=O)c2ccc(N3CC4CC(C3)[C@H]3CCCC(=O)N3C4)nc2)o1 (stereo not given in full),"inconclusive: 10 µM [inhibitor, partial curve, poor fit]",–
Cc1cn2nc(C(=O)Nc3ccc(C)c(F)c3)cc2c(N2CCSCC2)n1,"inconclusive: 5.01 µM [inhibitor, partial curve, poor fit]",–
O=C(Cc1ccccc1)Nc1ccnn1C1CCN(Cc2cn[nH]c2-c2ccccc2)CC1,"inconclusive: 17.8 µM [inhibitor, single point]",–
COc1cccc(C(=O)Nc2ccc(S(=O)(=O)N(Cc3ccccc3)c3ccccc3)cc2)c1,inactive,–
O=C(NCCCc1ccccc1)c1cccc2c1CCN2C(=O)C1CC1,inactive,–
CC(C)Oc1ccc(CNC(=O)Cn2c(-c3cccs3)cc3ccccc32)cc1,inactive,–
O=C(NCC1CN(CC2CC2)CC12CN(c1ccccc1)C2)Nc1ccccc1 (stereo not given),"inconclusive: 2.51 µM [inhibitor, partial curve, poor fit]",–
COc1ccc(CCC(=O)NCCc2csc(-c3cccc(C)c3)n2)cc1,inactive,–
Cc1ccc(C)c(CN2C(=O)c3ccccc3S(=O)c3ccc(C(=O)NCCC4=CCCCC4)cc32)c1 (stereo not given),"inconclusive: 3.98 µM [inhibitor, single point]",–
CCN1CC(CN(C)Cc2cn(-c3ccccc3C)nc2-c2ccc(OC)c(F)c2)CC1=O (stereo not given),active: 10 µM,–
C[C@H]1[C@@H]2[C@H]3OC(=O)[C@@H](C)[C@@H]3CC[C@@]2(C)CC[C@@H]1NC(=O)c1cncnc1,"inconclusive: 31.6 µM [inhibitor, single point]",–
Cc1oc2c(c1C(=O)NC1CCCC1)CN(Cc1ccc(F)cc1)CC2,"inconclusive: 10 µM [inhibitor, single point]",–
COc1ccc(S(=O)(=O)N2CCc3c(C(=O)NCc4ccncc4)cccc32)cc1,"inconclusive: 3.55 µM [inhibitor, partial curve, poor fit]",–
O=C(c1cc2ccccc2[nH]1)N1CCC2(CC1)CN(c1ncccn1)CC2CO (stereo not given),"inconclusive: 2.82 µM [inhibitor, partial curve, poor fit]",–
Cn1cccc1C(=O)N1CCCC(c2nc(-c3ccccc3)no2)CCNC(=O)CC1 (stereo not given),"inconclusive: 14.1 µM [inhibitor, single point]",–
COc1ccc(C(=O)N2CCC3(CC(C)=NO3)C2)cc1 (stereo not given),inactive,–
CCC1=C(C(=O)OC)C(c2ccc(OC)cc2OC)N2C(CC(=O)NC3CC3)=CSC2=N1 (stereo not given),inactive,–
CCOc1ccc2c(c1)c(=O)c(S(=O)(=O)c1ccc(Cl)cc1)cn2Cc1ccccc1C,active: 12.6 µM,–
COc1cccc(Nc2nc3ccc(C(=O)c4ccccc4)cc3n3c(C)nnc23)c1,"inconclusive: 3.55 µM [inhibitor, single point]",–

SMILES,Potency,"activity, negative = inhibition"
Cc1ccccc1OCc1ccc(-c2nc(C#N)c(N3CCC(C(N)=O)CC3)o2)o1,"inconclusive: 7.94 µM [inhibitor, partial curve]",–
COC(=O)c1ccc(CN2C(=O)[C@@H]3C[C@@H](O)CN3C3(CN(CC4CC4)C3)C2=O)cc1,inactive,–
Cn1c(CO[C@H]2CN(Cc3cnc4ccccc4c3)C[C@H]2F)nc2ccccc21,"inconclusive: 10 µM [inhibitor, partial curve]",–
CCN1c2cc(C(=O)NCCOc3ccccc3OC)ccc2C(=O)N2CCCCCC21 (stereo not given),"inconclusive: 1.41 µM [inhibitor, partial curve, poor fit]",–
Cc1nccn1CCCC(=O)N1CCC2(CC1)CNC(C(=O)O)C2 (stereo not given),inactive,–
CC1(COCC2CC2)COc2ccc(C(=O)Nc3cccc([S+](C)(=O)[O-])c3)cc2N1 (stereo not given),"inconclusive: 22.4 µM [inhibitor, single point]",–
O=C(CCC1CCCC1)NCC(=O)N1CCCCCCNC(=O)CC1c1ccccc1 (stereo not given),"inconclusive: 12.6 µM [inhibitor, single point]",–
Cc1ccc(S(=O)(=O)N2CCC(Oc3ncccc3C(=O)N3CCOCC3)C2)cc1 (stereo not given),"inconclusive: 20 µM [inhibitor, single point]",–
O=C(NCC1CN([S+](=O)([O-])c2cccnc2)CC12CN(c1ccccc1)C2)Nc1ccccc1 (stereo not given),inactive,–
CSCC(=O)NCCC[C@H](NC(=O)[C@@H]1[C@@H](NC(=O)Nc2ccc(F)cc2F)CCN1C(=O)CSC)C(N)=O,inactive,–
COC(=O)N1CCc2nc(C3CC3)nc(-c3ccc(Cl)cc3)c2C1,inactive,–
Cc1c(C(=O)N2C[C@@H](C)[C@](O)(C3CCC3)C2)n(C)c2c(C)cccc12,"inconclusive: 11.2 µM [inhibitor, single point]",–
COc1ccccc1N1CCN(S(=O)(=O)c2c(C)sc3ncn(CC(=O)N(C)c4ccc(C(C)C)cc4)c(=O)c23)CC1,"inconclusive: 10 µM [inhibitor, single point]",–
CCCCCN(CCC(=O)NCCC(C)C)C(=O)c1cc(C)oc1C,"inconclusive: 3.98 µM [inhibitor, single point]",–
Fc1ccc2c(c1)nc1n2[C@@H](CNCc2c[nH]c3ccccc23)COC1,"inconclusive: 2 µM [inhibitor, partial curve]",–
COc1cccc(CN2CCCC3(C2)NC(=O)c2ccccc2O3)c1 (stereo not given),active: 15.8 µM,–
CCCNC(=O)N[C@@H]1CCC[C@@H](C(=O)NCCOC)CC(=O)N(C)C1,"inconclusive: 31.6 µM [inhibitor, partial curve, poor fit]",–
Cc1cccc(C)c1-n1ncc(C(=O)Nc2ccc3c(c2)OCCO3)c1C1CCN(C(=O)OC(C)(C)C)CC1,"inconclusive: 11.2 µM [inhibitor, single point]",–
CCOCCOC(=O)c1ccc(NC(=O)/C=C/c2ccc(OC)c(OC)c2)cc1,"inconclusive: 5.01 µM [inhibitor, partial curve, poor fit]",–
Cc1ccc(S(=O)(=O)c2cn(C)c3cc(N4CCN(C)CC4)c(F)cc3c2=O)cc1,"inconclusive: 12.6 µM [inhibitor, single point]",–
COc1ccc(S(=O)(=O)N(CC(=O)NCc2ccccc2OC)c2ccc(C)cc2)cc1,inactive,–
